# Assay results published in PubChem BioAssay AID759 (NMMLSC, 2007).
# The campaign covered roughly 190,000 compounds. About 270 (0.14%) were called active. The inconclusive results got no clear call from the source; some entries with a clear call stand among them for comparison.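 How the source made its calls: active means GTP binding activity at least 20% away from the 100% baseline, either lowered as inhibitor or raised as activator; inconclusive means flagged as likely green fluorescent, judged across all proteins in the well; inactive means the rest.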
# Target: GTPase HRas (Homo sapiens) (UniProt P01112)
# Assay: HRas wt fluorescent GTP binding changes, either direction – biochemical, wildtype, bead-based flow cytometry, multiplex, primary screen (AID 759);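 further: 0% = unlabeled GTP competition control and 100% = no-compound control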
# Settings: GST-Ras wt beads, Bodipy-FL-GTP binding, at 10 µM, actives lie on both sides
# Chain of UniProt P01112 (P01112 whole entry, looked up): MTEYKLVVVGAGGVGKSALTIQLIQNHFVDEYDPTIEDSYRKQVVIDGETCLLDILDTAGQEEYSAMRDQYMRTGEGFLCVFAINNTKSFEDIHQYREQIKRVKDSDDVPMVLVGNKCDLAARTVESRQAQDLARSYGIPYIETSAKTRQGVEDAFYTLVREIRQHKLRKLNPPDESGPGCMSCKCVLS
row,Compound,GTP binding activity
1,CCOC(=O)CN(C(=O)CSc1nnc2c(n1)[nH]c1ccc(F)cc12)c1ccccc1,inconclusive: 90%
2,Cc1ccc(NCc2nnc(SC(C)C(=O)N/N=C/c3ccc(C)o3)n2-c2ccccc2)cc1 (stereo not given),inconclusive: 102%
3,O=C1CC(N2CCOCC2)C(=O)N1CCc1ccccc1 (stereo not given),inconclusive: 102%
4,CCOC(=O)Nc1nnc(-c2cccc(OC)c2)s1,inconclusive: 103%
5,Cc1ccc(S(=O)(=O)c2c(N)n(CCCO)c3nc4ccccc4nc23)cc1,inconclusive: 88%
6,Cn1nc(C(=O)Nc2nnc(C3CC3)s2)c2ccccc2c1=O,inconclusive: 89%
7,COC(=O)c1ccccc1NC(=S)NC(NC(=O)COc1ccccc1)C(Cl)(Cl)Cl (stereo not given),inconclusive: 107%
8,CCOC(=O)c1[nH]c(C)c(CN(CCc2ccc(OC)c(OC)c2)C(=O)CCCC(=O)O)c1C,inconclusive: 105%
9,CCC(C)Nc1nc(OCC(F)(F)F)nc(OCC(F)(F)F)n1 (stereo not given),inconclusive: 106%
10,CCCCN(C)C1=CC2=CC(=C(C#N)C#N)CCC2CC1 (stereo not given),inconclusive: 114%
11,Cc1nn(C)c(C)c1S(=O)(=O)N(CC(=O)NCc1cccs1)c1ccc(C(C)C)cc1,inactive: 99%
12,CCN(C(=O)Cn1c(=O)oc2ccccc21)c1cccc(C(F)(F)F)c1,inconclusive: 107%
13,C#CCOC(=O)C[N+](C)(C)CC#Cc1ccccc1,inactive: 96%
14,COc1ccc(NC(=O)c2cc(-c3ccccc3)oc2C)cc1,inconclusive: 94%
15,Cc1ccccc1NC(=O)Cn1nc(-c2ccccc2)nc1-c1ccccc1,inconclusive: 107%
16,Cc1nn(-c2ccccc2)c(C)c1C(=O)OCC(=O)N(C)C1CCS(=O)(=O)C1 (stereo not given),inconclusive: 94%
17,CC(=O)NCC1CCCN(c2nc3nonc3nc2N(C)Cc2ccccc2)C1 (stereo not given),inconclusive: 95%
18,COc1ccc(N(C(=O)c2ccc(F)cc2)C2=CC3CCC(C2)N3C)cc1 (stereo not given),inconclusive: 104%
19,Cc1cc(N)nc2nc(C(F)(F)F)nn12,inactive: 95%
20,CCOC(=O)C1CCN(C(=O)CCc2ccccc2)CC1,inconclusive: 102%
21,C=CCn1c(-c2cccs2)nc2nc3ccccc3nc21,inconclusive: 96%
22,COc1ccc(CCNC(=O)CSc2nc3[nH]ncc3c(=O)n2-c2ccccc2OC)cc1OC,inconclusive: 93%
23,O=C(O)c1ccc(N2C(=O)CC(SC(=NCc3ccc4c(c3)OCO4)Nc3ccc(F)cc3)C2=O)cc1 (stereo not given),inconclusive: 89%

row,Compound,GTP binding activity
1,O=C(Cn1cc(C(F)(F)F)ccc1=O)Nc1cccc(S(=O)(=O)N2CCOCC2)c1,inactive: 99%
2,Cc1c(C(=O)N2CCOCC2)[nH]c2c1C(=O)CC(c1ccccc1Cl)C2 (stereo not given),inconclusive: 93%
3,CC(=O)Nc1ccc(NC(=O)C(OC(=O)c2ccccc2)C(OC(=O)c2ccccc2)C(=O)O)cc1 (stereo not given),inactive: 94%
4,Cc1cccc(S(=O)(=O)Nc2ccc(-c3cn4ccccc4n3)cc2)c1,inconclusive: 93%
5,CCOC(=O)C1CCN(CCC(=O)Nc2cccc(C)c2)CC1,inconclusive: 98%
6,C#CCNC(=O)C1=C[C@@H](C2CCCCC2)C[C@@H](OCCCCO)O1,inactive: 96%
7,Nc1cc(C(=O)O)ccc1Sc1ccccc1C(=O)O,inactive: 96%
8,CCN(CC(=O)Nc1sc2c(c1C#N)CCCC2)CC(=O)NC1CCS(=O)(=O)C1 (stereo not given),inconclusive: 92%
9,CCOC(=O)C1CCCN(C(=O)c2cc3cc(Br)ccc3oc2=O)C1 (stereo not given),inconclusive: 96%
10,COc1cc(N2CCCC2)c(OC)cc1/C=C(/C#N)c1ccc(Br)cc1,inconclusive: 166%
11,Cn1c(SCC(=O)N2CCN(c3ccccc3)CC2)nnc1-c1cc2ccccc2o1,inconclusive: 96%
12,COc1cc(C(=O)O)c2ccccc2n1,inactive: 98%
13,CO/N=C(/CS(=O)(=O)Cc1ccccc1Cl)c1ccc(Cl)cc1Cl,inconclusive: 103%
14,COc1cccc(-n2nnc3c(=O)n(Cc4ccc(C)cc4)cnc32)c1,inconclusive: 95%
15,CC(=O)[C@@H]1[C@@H]2C(=O)N(C3CCCCC3)C(=O)[C@@H]2C2c3ccccc3C=CN21 (stereo not given in full),inconclusive: 106%
16,c1ccc(-c2nnc(OCc3cccnc3)c3ccccc23)cc1,inconclusive: 95%
17,CC1CCN(S(=O)(=O)N2CCC(C(=O)NCCN3CCOCC3)CC2)CC1,inconclusive: 91%
18,COC(=O)c1ccc(C2C(Oc3ccc(OC)cc3)C(=O)N2CCc2ccc(OC)c(OC)c2)cc1 (stereo not given),inconclusive: 102%
19,Cc1ccc2c(c1)SC1=NC(c3ccccc3)(C(F)(F)F)NC(=O)N12 (stereo not given),inconclusive: 94%
20,COc1ccc2nc(NNC(=O)c3cc(=O)c4ccccc4o3)sc2c1,inactive: 90%
21,O=C(O)/C=C/c1cn(Cc2ccccc2)nc1-c1cccs1,active: 120% [activator]
22,COCCCN1CN(S(=O)(=O)c2ccc(Cl)cc2)c2nc3ccccc3nc21,inconclusive: 104%
23,N#C/C(=C/c1ccc(N2CCCCC2)o1)C(=O)Nc1ccc2ccccc2c1,inconclusive: 181%

row,Compound,GTP binding activity
1,CC(=O)Nc1ccc(N2C(=O)c3ccc(C(=O)Nc4nnc(SCc5ccc(F)cc5)s4)cc3C2=O)cc1,active: 73%
2,CCC(c1nnnn1CS(=O)(=O)c1ccc(C)cc1)N1CCN(c2nc3ccccc3s2)CC1 (stereo not given),inconclusive: 101%
3,COc1ccc(CCn2c(C)nc3c(c(=O)c4ccccc4n3C)c2=O)cc1,inactive: 98%
4,O=C(NCc1ccco1)c1ccc(-c2ccccc2Cl)o1,inconclusive: 88%
5,COC(=O)C1C(=O)C2=C(CC1C)NC(=O)CC2c1ccc(O)c(OC)c1 (stereo not given),inactive: 103%
6,O=C(CN1CCCCCC1)N/N=C/c1cccc(Cl)c1Cl,inactive: 102%
7,CCn1cc(C2=NOC(C(=O)Nc3cccc(C(C)=O)c3)C2)c(C)n1 (stereo not given),inconclusive: 105%
8,Cc1ccc(C)c(NS(=O)(=O)c2cc(C(=O)Nc3ccccc3-c3ccccc3)ccc2C)c1,inconclusive: 105%
9,O=C(COc1ccccc1-c1ccccc1)N/N=C/c1ccncc1,active: 59%
10,CCOC(=O)c1sc(Nc2nc3c(OC)cccc3s2)nc1C,inconclusive: 86%
11,CCN(CC)S(=O)(=O)c1ccc(C(=O)NC(C)(C)C)cc1,inconclusive: 93%
12,CCOCCc1nnc(NC(=O)c2cccc(F)c2)s1,inconclusive: 105%
13,Cc1nc2ccc(NC(=O)COc3ccccc3)cc2s1,inconclusive: 277%
14,Cc1cc(C)n(C(=O)CNC(=O)c2ccc3c(c2)OCCO3)n1,active: 38%
15,N#C/C(=N\Nc1ccccc1[N+](=O)[O-])C(=N)N1CCCCC1,inconclusive: 97%
16,O=C(NCCCN1CCCCCC1)c1ccc(N2CCCC2=O)cc1,inconclusive: 103%
17,CCN(CC)S(=O)(=O)c1ccc(C(=O)Oc2cc(C)[nH]c(=O)c2[N+](=O)[O-])cc1,inactive: 96%
18,Cc1cc(N2CCOCC2)n2cc(-c3ccccc3)nc2n1,inconclusive: 92%
19,CC(C)CNS(=O)(=O)c1ccc(CCC(=O)O)cc1,inconclusive: 92%
20,CCN(CC)c1ccc(CNCc2cccs2)cc1,inconclusive: 99%
21,CC(=O)Nc1ccc(S(=O)(=O)Nc2nc3ccccc3nc2Nc2ccccc2)cc1,inconclusive: 95%
22,CCCCCOC(=O)c1ccccc1C(=O)O,inconclusive: 125%
23,Cc1cccc(C)c1OCCNC(=O)C(=O)NCc1ccco1,inactive: 98%

row,Compound,GTP binding activity
1,COCCOC(=O)C1=C(C)OC(N)=C(C#N)C1c1cc2cccc(C)c2nc1Cl (stereo not given),inconclusive: 93%
2,C=CCn1c(CNc2ccc(C)cc2)nnc1SCC(=O)N/N=C/c1ccc(O)cc1O,inconclusive: 91%
3,S=C(NC1CCCCC1)N1CCN(Cc2ccccc2Cl)CC1,inactive: 97%
4,CCOc1ccc2c(c1)c(N=Nc1cccc(C(=O)O)c1)c(O)n2C,inactive: 96%
5,Cc1cc(CN(C)Cc2c(C(=O)N3CCCCCCC3)nc3ccc(Cl)cn23)n[nH]1,inactive: 98%
6,Cc1cc(C(=O)COC(=O)c2nc3nccc(C)n3n2)c(C)n1CC1CCCO1 (stereo not given),inconclusive: 91%
7,O=C(Nc1cccc2ccccc12)N1CCN(Cc2ccccc2)CC1,inconclusive: 94%
8,Cc1cc2ncn(CCC(=O)NC(C)(C)C)c2cc1C,inactive: 87%
9,O=C(Nc1sc2c(c1C(=O)O)CCCCC2)c1ccccc1,inactive: 82%
10,S=C(c1ccc2c(c1)OCO2)N1CCCCC1,inconclusive: 105%
11,O=C(CSc1nc2cc(Cl)ccc2s1)c1ccco1,inconclusive: 94%
12,COc1cccc(C2SCC(=O)N2c2ccc(Br)cc2)c1OC (stereo not given),inactive: 97%
13,N#CC1=C(N)N(c2ncn[nH]2)C2=C(C(=O)CCC2)C1c1ccccc1 (stereo not given),inconclusive: 95%
14,CCOc1ccc(CCNc2ccc3nnc(-c4ccccc4)n3n2)cc1OCC,active: 74%
15,CCCN(CCC)CCNS(=O)(=O)c1ccc2c(c1)oc(=O)n2C,inconclusive: 105%
16,Cc1ccc(C)c(N2CCN(C(=O)c3ccc4nc(-c5ccco5)c(-c5ccco5)nc4c3)CC2)c1,inconclusive: 89%
17,O=S(=O)(Nc1cc(Sc2ncn[nH]2)c(O)c2ccccc12)c1ccccc1,inactive: 92%
18,O=C(N/N=C/c1ccc(OCc2ccccc2)cc1)c1cc[n+](Cc2ccccc2)cc1,inconclusive: 101%
19,Cc1ccc(NC(=O)CN2C(=O)C3C4C=CC(C4)C3C2=O)cc1S(=O)(=O)N(C)C (stereo not given),inconclusive: 101%
20,O=C(O)COc1ccc(Br)cc1/C=C1/SC(=O)N(CC(=O)N2CCCC2)C1=O,inconclusive: 100%
21,CC1=NNC(=O)C1CCC(=O)N/N=C(/C)c1ccc([N+](=O)[O-])cc1 (stereo not given),inconclusive: 102%
